Measurements published in PubChem BioAssay AID493208 (National Center for Advancing Translational Sciences (NCATS), 2011).
In all, about 44,000 compounds went through this assay and about 340 (0.77%) were called active. Another 5% or so got no clear call; they are omitted. Calls follow the shape of the dose curve; as a rule, active = well fitted inhibition curve with a large enough effect; inconclusive = small, poorly fitted or top-dose-only effect; inactive = flat fitted curve, though single readings scatter. Some of the results follow.

experiment: Acumen qHTS Assay for Inhibitors of the mTORC1 Signaling Pathway in MEF (Tsc2-/-, p53-/-) Cells: Sytravon; settings: phospho-rpS6 immunofluorescence/PI, 24 h; series mostly up to 38.3 µM; activity change, negative = inhibition: at the top concentration;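 also: plate controls were DMSO for no effect and rapamycin for full effect; nearly all actives have a fitted effect of over 50% in size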
How it was run: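 Read-out: phospho-S6 Alexa-488 intensity over PI intensity per well, scored as % active cells using thresholds from rapamycin (7.5 nM) and DMSO controls. Tsc2-/-, p53-/- MEFs exposed to compound for 24 h; PI cell count recorded as viability.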

Row | Compound | activity change, negative = inhibition
1 | Cc1cccc(C)c1NC(=O)CSc1nc(-c2ccccc2)nc2c1Cc1c(CO)cnc(C)c1O2 | inactive: -8.12%
2 | CCC1CN(C(=O)N2CCC(C(=O)NCCc3ccc(Cl)cc3)CC2)c2ccccc2O1 (configuration not stated) | inactive: 4.36%
3 | Cc1ccc(NC(=O)Cn2cc(C(=O)C3CC3)c3ccccc32)cc1 | inactive: 1.18%
4 | COc1ccc(NC(=O)Cn2nnc(C(=O)Nc3ccc(F)c(Cl)c3)c2N)cc1OC | inactive: -1.55%
5 | COc1ccc(-c2noc(CN(C(=O)COc3cc(C)c(Br)c(C)c3)C(C)C)n2)cc1 | inactive: -6.22%
6 | Cn1c(SCc2ccc(F)cc2)nc2ccc(C(=O)NCc3ccc(Cl)cc3)cc21 | inactive: -2.05%
7 | Cn1c(=O)c(=O)n(C)c2cc(N3CCOCC3)c(NS(=O)(=O)c3ccc(Cl)cc3)cc21 | inactive: 0.0108%
8 | Cc1nn(Cc2ccc(F)cc2)c(C)c1NC(=O)c1cc(CC(C)C)on1 | inactive: -0.273%
9 | CCc1ccc(S(=O)(=O)c2cn(CC(=O)Nc3ccc(C)cc3)c3ccccc3c2=O)cc1 | inactive: -4.92%
10 | CCOC(=O)c1[nH]c2c(c1Cc1ccccc1)C(=O)CC(c1ccc(Cl)cc1)C2 (configuration not stated) | inactive: 3.96%
11 | CCOC(=O)c1ccc(NC(=O)c2c(NC(C)=O)sc3c2CCC(C)C3)cc1 (configuration not stated) | inactive: -28.5%
12 | CCOc1ccc(CCNC(=O)c2ccc3c(Cl)c4c(nc3c2)CCCC4)cc1 | inactive: 1.68%
13 | O=S(=O)(NCCc1nnc2ccc(SCc3ccc(Cl)cc3Cl)nn12)c1ccccc1 | inactive: -15.6%
14 | Cc1ccc(CNC(=O)c2ccc3nc(N4CCCCC4)sc3c2)cc1 | inactive: -0.208%
15 | COc1cccc(C(c2sc3nc(-c4ccco4)nn3c2O)N2CCC(O)CC2)c1 (configuration not stated) | inactive: -2.14%
16 | CCOc1ccccc1NC(=O)c1sc2nc3n(c(=O)c2c1C)CCCCC3 | inactive: 1.62%
17 | COCCOC(=O)c1c(C)n(S(=O)(=O)c2ccc(C)cc2)c2ccc(NS(=O)(=O)c3ccc(C)cc3)cc12 | inactive: -11.3%
18 | COc1ccc2cc3cc(C(=O)NCc4ccc(C)cc4)oc3nc2c1 | inactive: -3.02%
19 | Cc1cc(C)cc(NC(=O)CSc2nc3c(oc4ccccc43)c(=O)n2-c2ccccc2F)c1 | inactive: 0.422%
20 | COc1ccc(OC)c(CCNC(=O)c2ccc3c(c2)N(Cc2ccc(C)cc2)CCS3)c1 | inactive: -17.8%
21 | COc1ccc(F)cc1S(=O)(=O)NCCc1c(C)[nH]c2c(Cl)cccc12 | inactive: 7.1%
22 | Cc1ccc(-c2nnc(Nc3ccc(O)cc3)c3ccccc23)cc1S(=O)(=O)N1CCN(C)CC1 | inactive: 2%
23 | COc1ccc(Nc2cc(C(=O)NCCc3ccc(C)cc3)c3ccccc3n2)c(OC)c1 | inactive: -17.1%
24 | CCOC(=O)N1CCC(NC(=O)c2c(C)nn(-c3ccc(C)cc3)c2-n2cccc2)CC1 | inactive: 2.69%

Row | Compound | activity change, negative = inhibition
25 | CCOCCCNC(=O)C1CCN(c2nn3cc(-c4ccc(F)cc4)nc3s2)CC1 | inactive: -1.84%
26 | CCCn1c2ccccc2c2cnn(CC(=O)NCCc3ccc(OCC)cc3)c(=O)c21 | inactive: -14.7%
27 | CCOc1ccc(-c2nn(CC(=O)NC3CCCCC3)c3c2cnc2ccc(C)cc23)cc1 | inactive: -0.632%
28 | Cc1ccc(C(=O)NCCc2ccc(Cl)cc2)cc1-n1c(C)nc2cccnc21 | inactive: 3.78%
29 | CCOc1ccc(NC(=O)CCNS(=O)(=O)c2ccc3c(c2)oc(=O)n3C)cc1 | inactive: -3.41%
30 | COc1ccc(NC(=O)Cn2nnc3sc4c(c3c2=O)CCC(C)C4)c(OC)c1 (configuration not stated) | inactive: 6.17%
31 | COc1ccccc1CNC(=O)c1ccc2c(c1)N(Cc1cccc(C)c1)C(=O)c1ccccc1S2(=O)=O | inactive: 2.61%
32 | Cc1ccc(C)c(Cn2c3ccccc3c3cnn(CC(=O)NCCC4=CCCCC4)c(=O)c32)c1 | inactive: -4.79%
33 | COc1ccc(Cl)cc1NC(=O)c1sc(-n2nc(C)c(Cc3ccccc3)c2C)nc1C | inactive: 1.84%
34 | CCn1c(=O)c2cc(C(=O)N(CCN(C)C)Cc3ccccc3)sc2c2ccccc21 | inactive: -2.4%
35 | CCOc1cc(C(=O)N2CC(=O)Nc3ccc(C)cc3C2c2ccccc2)cc(OCC)c1OCC (configuration not stated) | inactive: -5.1%
36 | Cc1nnc(SCc2ccccc2)c2cc3sccc3n12 | inactive: -6.56%
37 | O=S(=O)(Nc1cccc(-c2ccc(N3CCCC3)nn2)c1)c1ccccc1C(F)(F)F | inactive: -17.2%
38 | COCCCNC(=O)CSC1=Nc2ccccc2C2=NC(CCC(=O)NCc3ccccc3OC)C(=O)N12 (configuration not stated) | inactive: 1.11%
39 | CCc1ccc(CN(Cc2ccco2)C(=O)c2ccc(OC)cc2)cc1 | inactive: -6.8%
40 | CCc1ccc(CNC(=O)CCC(=O)N2Cc3cccc(OC)c3Oc3ncccc32)cc1 | inactive: 0.792%
41 | Cc1cc(C)cc(OC(C)C(=O)Nc2nonc2-c2ccc(Br)cc2)c1 (configuration not stated) | inactive: 0.71%
42 | Cc1ccccc1NC(=O)CSc1nnc(C)c(=O)[nH]1 | inactive: -1.85%
43 | CCOc1cccc(CNC(=O)c2ccc(N3CCCC3)c(NC(=O)NCc3ccc(F)cc3)c2)c1 | inactive: 18.3%
44 | Cc1ccc(Cl)cc1N(C)C(=O)Cn1nc(Cc2cccnc2)c2ccccc2c1=O | inactive: -18.5%
45 | Nc1c(-c2nc(-c3cccs3)no2)nnn1-c1ccccc1Cl | inactive: -6.16%
46 | O=C(NCc1ccco1)C1CCN(C(=O)N2CCOc3ccccc32)CC1 | inactive: 1.08%
47 | COCCn1c(CNC(=O)c2ccc(C)cc2)nc2cccnc21 | inactive: -0.701%
